Measurements published in the supplement of paper PMC4166925.
± gives the standard deviation of the averaged measurements. Over roughly 33,000 sequences, “E-score (dimensionless, -0.5 to 0.5)” has its median near -0.049; the highest 2% begin near 0.37. The list shows a part of the results.

tested on: T1, PmTbr T-box DNA-binding domain (GST fusion); test: PBM E-score of 8-mer (E-score (dimensionless, -0.5 to 0.5)); Tbr is Tbrain of the sea star Patiria miniata (Pm) or the sea urchin Strongylocentrotus purpuratus (Sp); higher = stronger binding preference; most listed sequences are background and not binding sites; conditions: the construct has about 5 more residues each side
T1 sequence: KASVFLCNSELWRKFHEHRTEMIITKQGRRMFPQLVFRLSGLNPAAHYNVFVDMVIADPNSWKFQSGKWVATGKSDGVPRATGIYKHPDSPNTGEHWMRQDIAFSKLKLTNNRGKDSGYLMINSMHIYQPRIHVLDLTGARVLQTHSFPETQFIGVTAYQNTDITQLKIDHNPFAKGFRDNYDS
Summary of the method: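 Using the Universal PBM Analysis Suite, every ungapped 8-mer received an enrichment E-score averaged over duplicate arrays. Probe intensities came from double-stranded Universal Agilent oligonucleotide arrays incubated with 200 nM GST-fused Tbr T-box DNA-binding domain in PBS (pH 7.5). That protein was expressed in BL21 E. coli at 20 °C and purified by glutathione affinity chromatography.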

Point of comparison: CCTTCATC, “PBM E-score of 8-mer” value -0.131 ± 0.052. Against it:
- GCTCATAA — within error, -0.141 ± 0.02
- ATCAGGTC — within error, -0.169 ± 0.12
- AATAATCG — within error, 0.0012 ± 0.083
- CGGTTGTC — higher, 0.15 ± 0.022
- GCGACTAA — higher, 0.184 ± 0.017
- GCCTGTAA — higher, 0.0336 ± 0.017
- ATATCTAC — within error, -0.188 ± 0.059
- ATCTTCCA — within error, -0.0837 ± 0.0074
- AGTTATAG — within error, -0.158 ± 0.037
- AGCTCGAC — higher, 0.242 ± 0.044
- CCCAGGCC — within error, -0.191 ± 0.015
- ATTACCTA — higher, -0.0469 ± 0.0045
- CGGGTAGC — higher, 0.0542 ± 0.073
- ATATAGCC — lower, -0.2087 ± 0.00052
- ACGTTTGA — higher, 0.0627 ± 0.073
- GCCAGAAC — within error, -0.105 ± 0.041
- CTTGGCAC — higher, 0.352 ± 0.016
- CTTGGCCA — lower, -0.204 ± 0.012
- AGCTTTAC — higher, -0.00584 ± 0.064
- AGGAAGAA — within error, -0.163 ± 0.04
- CGTTGACA — higher, 0.405 ± 0.0049
- GAAAGAAC — within error, -0.137 ± 0.076
- ACGGGGAC — within error, -0.0537 ± 0.069
- AGTGAGAG — higher, 0.312 ± 0.022
- CAGAGACG — within error, -0.147 ± 0.1
- GCCCAGCA — within error, -0.0465 ± 0.11
- ACCGCGGA — within error, -0.0338 ± 0.052
- AGATAACC — within error, -0.193 ± 0.019
- ACTACCAA — within error, -0.123 ± 0.016
- ATGGCCGG — lower, -0.237 ± 0.0035
- CCCGCTCA — within error, -0.052 ± 0.03
- AGAAGGAG — within error, -0.158 ± 0.038
- AACGCCAA — higher, 0.0837 ± 0.065
- GAGTGATA — higher, 0.246 ± 0.023
- GACTGGCA — higher, -0.0195 ± 0.022
- CAATTGGG — within error, -0.063 ± 0.063
- AGCAATCG — higher, 0.0214 ± 0.037
- CTGGGCGC — higher, 0.15669 ± 9.9e-05
- AGGATTGA — within error, -0.0332 ± 0.047
- AGAACCAA — within error, -0.0884 ± 0.013
- ACCCAATC — within error, -0.0936 ± 0.012
- CTCTCTGA — lower, -0.253 ± 0.021
- CTAACCGA — higher, -0.0216 ± 0.052
- CATTGTTA — higher, 0.123 ± 0.07
- CGCATGGA — within error, -0.0807 ± 0.0088
- CATTATGG — higher, 0.0845 ± 0.0034
- CCTTCGCG — higher, 0.2566 ± 0.0012
- ATCTTGTC — higher, 0.0542 ± 0.013
- CATTCCAG — lower, -0.219 ± 0.015
- GGAACCCA — lower, -0.1998 ± 0.0014
- AGTGTGGC — higher, 0.298 ± 0.012
- ATGTGGCC — lower, -0.241 ± 0.024
- CAAAACCG — higher, -0.0313 ± 0.0028
- GATCGAGA — within error, -0.0348 ± 0.057
- AAGCGAGG — higher, 0.0944 ± 0.026
- AGACAGAG — within error, -0.139 ± 0.052
- ATGCAGCC — lower, -0.192 ± 0.0069
- CGGAATGA — within error, -0.0838 ± 0.033
- CGACACAC — higher, 0.237 ± 0.0089
- ATTGCGCA — within error, -0.0786 ± 0.035
- ATTGGTTC — within error, -0.0984 ± 0.05
- ATACGGTC — within error, -0.12 ± 0.012
- GGACTCGA — within error, -0.169 ± 0.076
- TACCACGA — higher, 0.0444 ± 0.043
- CGAAGCTC — within error, -0.11 ± 0.043
- ACACCACC — higher, 0.405 ± 0.0043
- GGCTTCTA — lower, -0.336 ± 0.046
- ATTCTGTG — within error, -0.123 ± 0.067
- GCCATTCC — higher, 0.0412 ± 0.042
- TAACATAA — higher, -0.0455 ± 0.016
- GACCGCTA — within error, -0.127 ± 0.037
- GAATGCTA — higher, 0.0675 ± 0.021
- GGTATAAA — within error, -0.255 ± 0.078
- CGGCAACC — higher, -0.0228 ± 0.011
- AGGGAAAT — within error, -0.153 ± 0.043
- CAGTCTAC — within error, -0.169 ± 0.023
- ACTACTTC — higher, -0.0149 ± 0.046
- TGCTCTAA — lower, -0.317 ± 0.046
- GATATATA — higher, 0.00683 ± 0.036
- CGCTATGC — higher, -0.0262 ± 0.022
- AGGCGCAG — within error, -0.0586 ± 0.053
- CGCCAACA — higher, 0.259 ± 0.036
- CTTCTACA — within error, -0.126 ± 0.018
- GCAGGGAA — higher, -0.0487 ± 0.017
- CTTGTAAA — higher, 0.073 ± 0.03
- AAAACCGT — higher, -0.00562 ± 0.047
- AATCGGAA — higher, 0.201 ± 0.037
- AGCTTCCT — lower, -0.258 ± 0.025
- GGGGAGGA — within error, -0.183 ± 0.083
- ATGGTTGG — higher, 0.0213 ± 0.029
- AGTAATGG — within error, -0.193 ± 0.014
- ATTTCGTG — higher, 0.0509 ± 0.01
- AGGACCCG — higher, -0.037 ± 0.039
